Results published in PubChem BioAssay (NCATS).
“And” between values parts separate entries of the source, which are not always exact repeats. Equal entries are not always repeated. This list was built around the results that the source calls inconclusive (neither active nor inactive); the mix of calls is not that of the screen. For some assays here: A potency beside an inconclusive call is a rough fit, not a confirmed value. The source made the active and inactive calls. The call rests on the fitted dose curve; in most records, active means well fitted curve in the direction sought with a large enough effect; inconclusive means small, poorly fitted or top-dose-only effect, or another doubt; inactive means no such curve, though single readings can be large; an effect the other way counts as inactive or inconclusive.

Key:
[1] = tested on: CASKI; assay: Primary qHTS to identify gynecologic anti-cancer compounds using libraries of approved drugs and bioactive compounds (AID 1345084); conditions: Gynecologic cancer cell panel viability, ATPlite luminescence, 48 h; series mostly up to 57.5 µM; further: nearly all actives have a fitted effect of over 55% in size
How it was run: (§1)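 Cells, 1,000 per well, were allowed to settle for 16 h at 37 C before compound addition. Five concentrations were tested for 48 h, and viability was read by ATPlite luminescence after 15 min at room temperature.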

[2] = tested on: Es-2; assay: as above; conditions: Gynecologic cancer cell panel viability, ATPlite luminescence, 48 h; series mostly up to 57.5 µM
How it was run: as §1

[3] = tested on: HeLa; assay: as above; conditions: Gynecologic cancer cell panel viability, ATPlite luminescence, 48 h; series mostly up to 57.5 µM
How it was run: as §1

[4] = tested on: Hek293T; assay: as above; conditions: Gynecologic cancer cell panel viability, ATPlite luminescence, 48 h, control line for the selectivity index; series mostly up to 57.5 µM
How it was run: as §1

[5] = tested on: JEG-3; assay: as above; conditions: Gynecologic cancer cell panel viability, ATPlite luminescence, 48 h; series mostly up to 57.5 µM
How it was run: as §1

[6] = tested on: OV90; assay: as above; conditions: Gynecologic cancer cell panel viability, ATPlite luminescence, 48 h; series mostly up to 57.5 µM
How it was run: as §1

[7] = tested on: PA-1; assay: as above; conditions: Gynecologic cancer cell panel viability, ATPlite luminescence, 48 h; series mostly up to 57.5 µM
How it was run: as §1

[8] = tested on: SKOV3; assay: as above; conditions: Gynecologic cancer cell panel viability, ATPlite luminescence, 48 h; series mostly up to 57.5 µM
How it was run: as §1

[9] = tested on: Tov-21-G; assay: as above; conditions: Gynecologic cancer cell panel viability, ATPlite luminescence, 48 h; series mostly up to 57.5 µM
How it was run: as §1

[10] = tested on: Tov112D; assay: as above; conditions: Gynecologic cancer cell panel viability, ATPlite luminescence, 48 h; series mostly up to 57.5 µM
How it was run: as §1

[11] = tested on: astro; assay: Drug repurposing screens with cells derived from glioblastoma tumor samples (AID 1345199); conditions: viability, ATP luminescence, 48 h; series mostly up to 45.9 µM; further: nearly all actives have a fitted effect of over 40% in size
How it was run: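 Four patient lines of CD133+ GBM neurospheres were screened at several concentrations; hits were retested in those lines plus three slower-growing GBM lines, using 48-hour treatment and ATP-based viability.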

[12] = qHTS assay to identify inhibitors of the type 1 interferon - major histocompatibility complex class I in skeletal muscle: Counter screen cell viability and HiBit confirmation (AID 1347412); conditions: iHSKM muscle cells + IFN-b, HiBiT or CellTiter-Glo, 24 h; Viability; further: nearly all actives have a fitted effect of over 60% in size
How it was run: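 Human myoblast knock-in line, 4.0 ng/ml IFN-beta stimulation, 24 h compound treatment. Endpoints: HiBiT lytic luminescence (HLA-B level) and CellTiter Glo (ATP). Dosing 12 concentrations, 3-fold steps, 46 uM highest final.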
Potency means the concentration at half of the fitted maximal effect; tags describe the fitted curve by direction and shape.

## COc1cccc2nc(-c3cccs3)nc(NN3C(=O)C=C(C)C3=O)c12
[1]
  Potency: inconclusive: 31.6 µM [cytotoxic, partial curve, poor fit]
[2]
  Potency: active: 2.51 µM
[3]
  Potency: inconclusive: 1.26 µM [cytotoxic, full curve, poor fit]
[4]
  Potency: active: 1.41 µM
[5]
  Potency: inconclusive: 1 µM [cytotoxic, partial curve, poor fit]
[6]
  Potency: inconclusive: 2.51 µM [cytotoxic, full curve, poor fit]
[7]
  Potency: active: 1.58 µM
[8]
  Potency: inconclusive: 39.8 µM [cytotoxic, single point]
[9]
  Potency: inconclusive: 11.2 µM [cytotoxic, partial curve, poor fit]
[10]
  Potency: active: 0.891 µM

## CNC(=O)c1cc(Oc2ccc(NC(=O)Nc3ccc(Cl)c(C(F)(F)F)c3)cc2)ccn1
[1]
  Potency: inconclusive: 31.6 µM [cytotoxic, single point]
[2]
  Potency: inconclusive: 28.2 µM [cytotoxic, single point] and inactive
[3]
  Potency: inconclusive: 31.6 µM [cytotoxic, single point] and inconclusive: 20 µM [cytotoxic, partial curve, poor fit]
[4]
  Potency: inconclusive: 39.8 µM [cytotoxic, single point]
[6]
  Potency: inconclusive: 31.6 µM [cytotoxic, partial curve, poor fit]
[7]
  Potency: inconclusive: 25.1 µM [cytotoxic, single point]
[8]
  Potency: inconclusive: 39.8 µM [cytotoxic, single point]
[9]
  Potency: inconclusive: 39.8 µM [cytotoxic, single point]
[11]
  Potency: active: 11.2 µM

## CNc1nccc(-c2cccnc2Oc2cc(C(=O)Nc3cccc(C(F)(F)F)c3)ccc2C)n1
[1]
  Potency: inconclusive: 28.2 µM [cytotoxic, single point]
[2]
  Potency: inconclusive: 28.2 µM [cytotoxic, single point]
[3]
  Potency: inconclusive: 39.8 µM [cytotoxic, single point]
[4]
  Potency: inactive
[6]
  Potency: inconclusive: 7.94 µM [cytotoxic, partial curve, poor fit]
[7]
  Potency: inconclusive: 39.8 µM [cytotoxic, single point]
[8]
  Potency: active: 28.2 µM
[9]
  Potency: active: 28.2 µM
[10]
  Potency: inconclusive: 25.1 µM [cytotoxic, partial curve]

## CC1(C)CC(=O)c2c(C(F)(F)F)nn(-c3ccc(C(N)=O)c(NC4CCC(O)CC4)c3)c2C1 (stereo not drawn)
[1]
  Potency: inconclusive: 0.447 µM [cytotoxic, full curve, poor fit]
[2]
  Potency: inconclusive: 0.891 µM [cytotoxic, full curve]
[4]
  Potency: inconclusive: 0.355 µM [cytotoxic, full curve, poor fit]
[5]
  Potency: inconclusive: 0.355 µM [cytotoxic, full curve, poor fit]
[6]
  Potency: active: 0.316 µM
[7]
  Potency: active: 0.447 µM
[8]
  Potency: active: 0.398 µM
[9]
  Potency: active: 0.355 µM
[10]
  Potency: inconclusive: 0.708 µM [cytotoxic, full curve, poor fit]
[12]
  Potency: inconclusive: 0.557 µM [cytotoxic, full curve]

## O=C(O)c1ccc2c(c1)nc(Nc1cccc(Cl)c1)c1ccncc12
[1]
  Potency: active: 35.5 µM
[2]
  Potency: inconclusive: 39.8 µM [cytotoxic, single point]
[3]
  Potency: inconclusive: 20 µM [cytotoxic, partial curve, poor fit]
[4]
  Potency: inconclusive: 22.4 µM [cytotoxic, partial curve]
[6]
  Potency: inconclusive: 5.62 µM [cytotoxic, full curve]
[7]
  Potency: inconclusive: 14.1 µM [cytotoxic, partial curve, poor fit]
[8]
  Potency: inconclusive: 25.1 µM [cytotoxic, partial curve, poor fit]
[10]
  Potency: inconclusive: 35.5 µM [cytotoxic, single point]

## C[C@@H](N)c1ccc(C(=O)Nc2ccnc3[nH]ccc23)cc1
[1]
  Potency: inconclusive: 31.6 µM [cytotoxic, single point]
[2]
  Potency: inconclusive: 35.5 µM [cytotoxic, single point]
[3]
  Potency: active: 17.8 µM
[4]
  Potency: inconclusive: 35.5 µM [cytotoxic, single point]
[7]
  Potency: inconclusive: 22.4 µM [cytotoxic, partial curve, poor fit]
[8]
  Potency: inconclusive: 39.8 µM [cytotoxic, single point]
[10]
  Potency: active: 25.1 µM
